# Reference: the RNAGym collection of RNA variant scans (doi:10.7554/elife.90254)
# The source gives no read counts; variants with many changes may rest on few reads.
# B1: LINE1-mini (parent)
# chain: GGCAGAGCUCAACACAGCGUGGCAAAGUGGCUGUGGCUAGACUGCC
# Variants of: B1
# Test: self-cleavage, relative activity (ratio to wild type); higher = more cleavage; in vitro, sequencing; the parent is a self-cleaving ribozyme
row,Variant,self-cleavage
1,C3U A12G G30U G33U U34G C45A,0
2,C3U A16G G30A U38A A41U,0.01
3,C3G G21U G22U U32A,0.03
4,C3G G30C C37U,0.52
5,C3G U20C A26G U32A,0.08
6,C3G G5A A11G C13A A24C,0.04
7,C3U A6U A14U,0.05
8,C3G U9G G27U,0.11
9,C3G G21C U34C U43G,0.02
10,C3G G17U C37A U38C G40C,0.16
11,C3G G19U C23A A26U G33C,0.04
12,C3G G21A C45U C46A,0.73
13,C3G G5C U9G C15A U38G,0.04
14,C3U A4C C10U C23U A24G,0.05
15,C3U A16G G19C,0.14
16,C3U A4G A12U G44U,0.05
17,C3G C18U C37A U43C,0.25
18,C3U A12C G17A C18A,0.02
19,C3U A4U C10G C15G A25U A39U,0.02
20,C3G G35C A39C,0.02
21,C3G C31A C45A C46A,0.02

row,Variant,self-cleavage
1,C3G U9A C18G U32G C45A,0.21
2,C3U A4U C15A A24C,0.03
3,C3U A11U C15G,0.02
4,C3G C18U U38C,0
5,C3G G5A U9A C13G,0.41
6,C3U A11C U38A,0.02
7,C3U A11U G19C G21A,0.02
8,C3G G21U G27U G29A C37U,0.1
9,C3U C8A A11U A26C,0.01
10,C3G G44A C46A,0.24
11,C3U A12C A16U A25C G27U C37A C42U,0.02
12,C3G U9C A26U G29C,0.03
13,C3G G19C U32A,0.05
14,C3G U20C G36U,0.25
15,C3G C18U G33U C37A U38C G44U,0.03
16,C3G G7C A25U U34G G36U C37U G40A,0
17,C3U A24G G40A,0.07
18,C3G U38C G40C,0.03
19,C3G G7U G22A,0.06
20,C3U A16U C18U C45U,0
21,C3G G44A C45U,0.08

row,Variant,self-cleavage
1,C3U A14G G21C C23G,0.23
2,C3U A4C C23G,0.03
3,C3U A4G C15A C23G G27U G33U G44C C45G,0.07
4,C3G G21A G22C C37A G44C,0.01
5,C3G G17A G19A A26U A39C C45U,0.01
6,C3U A14C U32G,0.03
7,C3U A14G G33U G40U C45G,0.07
8,C3U A25C U34C,0.06
9,C3U A4U U9G G19U U32C,0.03
10,C3U A14G G36U,0.28
11,C3U A4U A6C G17C U28C U34G C46A,0.05
12,C3G G7U A14U C23U,0.77
13,C3U A6U C8G C45G,0.92
14,C3G U9A G35C C42A C45U C46G,0.06
15,C3U A4G A11G,0.03
16,C3U A6G C13U G22A C37U G44U,0.06
17,C3G G29U G35U,0.23
18,C3G G40C C45G,0.03
19,C3G G5U C42G,0.04
20,C3U A14C C42U,0.04
21,C3G G19U C31G,0.05

row,Variant,self-cleavage
1,C3G U28A C31A,0.1
2,C3U A6G C8U U20G,0.31
3,C3G G40U C45U,0.11
4,C3U A6U C10U,0.09
5,C3G G5C C15A G29A G35A C45A,0.04
6,C3U A26U G30A G44U,0.08
7,C3G G7C G21A A41U,0.05
8,C3G G5A U32C,0.12
9,C3G U20C G35A,0.05
10,C3U A41U C46U,0.59
11,C3G G17A G22U C46A,0.14
12,C3U A11C G35U,0
13,C3G G5A A6G G7A C37U A39U,0.26
14,C3U A14G C31A C42A,0.04
15,C3U A25C G36U C37A G44U,0.21
16,C3U A26G C42G C45G,0.11
17,C3G G33U A39G,0.75
18,C3U A6U C15U A39G,0.05
19,C3U A6G C37G,0.03
20,C3G G30U G44C,0.93
21,C3U A24G G29C,0.17
